The results in this text go back to paper PMC6395948 (Molecular Cell, 2019).

This series concerns the molecule itself. Briefly: crystal structure.

B1: McbC (enzyme, Escherichia coli)
chain: MSKHELSLVEVTHYTDPEVLAIVKDFHVRGNFASLPEFAERTFVSAVPLAHLEKFENKEVLFRPGFSSVINISSSHNFSRERLPSGINFCDKNKLSIRTIEKLLVNAFSSPDPGSVRRPYPSGGALYPIEVFLCRLSENTENWQAGTNVYHYLPLSQALEPVATCNTQSLYRSLSGGDSERLGKPHFALVYCIIFEKALFKYRYRGYRMALMETGSMYQNAVLVADQIGLKNRVWAGYTDSYVAKTMNLDQRTVAPLIVQFFGDVNDDKCLQ
Consider B1, for which the “stoichiometry N” value was determined as 2.
